The source of these data is the supplement of paper PMC4604168 (melanoma cell lines).

Structures are written as SMILES. The list shows a part of the results. Repeats are few or missing, and single values can be far off.
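Note: cell number obtained by counting DAPI-stained nuclei in high-throughput microscope images with image analysis software, screen run in 1,536-well plates.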

The test deals with C32. Nature of the test: cell count relative to DMSO control; melanoma cells; higher = more viable cells. The note with it: library dose: low library concentration; 72 h.
`C[C@]1(c2nc3c(C(N)=O)cccc3[nH]2)CCCN1` [Veliparib] + Oc1cc(-c2nc(-c3ccccc3)[nH]c2-c2ccncc2)ccc1Cl [L779450] (first compound 1.4 µM, partner dose 0.2 µM) yielded a cell count of 86.5%.
The same measure for `CN(C)S(=O)(=O)c1ccc2c(c1)/C(=C/c1cc3c([nH]1)CCCC3)C(=O)N2` + O=C(O)c1ccc(-c2c[nH]c3ncc(-c4ccccc4)cc23)cc1C1CCCC1 [GSK650394] (first compound 0.4 µM, partner dose 0.16 µM): 96.6%.
In turn, `NC(=O)Nc1cc(-c2cccc(F)c2)sc1C(=O)N[C@H]1CCCNC1` + Cc1cc(N2CCOCC2)cc2[nH]c(-c3c(NC[C@@H](O)c4cccc(Cl)c4)cc[nH]c3=O)nc12 [BMS536924] (first compound 0.02 µM, partner dose 0.2 µM) returned a cell count of 90.4%.
Next, `C=CCn1c(=O)c2cnc(Nc3ccc(N4CCN(C)CC4)cc3)nc2n1-c1cccc(C(C)(C)O)n1` + CCN(CC)CCCCNc1ncc2cc(-c3cc(OC)cc(OC)c3)c(NC(=O)NC(C)(C)C)nc2n1 [PD173074] (first compound 0.02 µM, partner dose 0.1 µM): 84.7%; `Cc1nc(Nc2ncc(C(=O)Nc3c(C)cccc3Cl)s2)cc(N2CCN(CCO)CC2)n1` [dasatanib] + O=S(=O)(c1ccccc1)N(CC(F)(F)F)c1ccc(C(O)(C(F)(F)F)C(F)(F)F)cc1 [T0901317] (first compound 0.004 µM, partner dose 1.4 µM): 92.7%.
Next, `OCCn1cc(-c2cnc3nnn(Cc4ccc5ncccc5c4)c3n2)cn1` + Cn1cc(/C=C2\C(=O)Nc3cccnc32)c2ccccc21 [GW441756] (first compound 1 µM, partner dose 0.4 µM): 109%; `NC(=O)Nc1cc(-c2cccc(F)c2)sc1C(=O)N[C@H]1CCCNC1` + O=C(O)C(=O)Nc1sc2c(c1C(=O)O)CCNC2 [TCS401] (first compound 0.02 µM, partner dose 1.66667 µM): 73.3%.
With `OCCn1cc(-c2cnc3nnn(Cc4ccc5ncccc5c4)c3n2)cn1` + CCCCCCCCCCCC1=C(O)C(=O)C=C(O)C1=O [Embelin] (first compound 1 µM, partner dose 1.2 µM), the cell count came out at 90.8%.
`Cc1nc(Nc2ncc(C(=O)Nc3c(C)cccc3Cl)s2)cc(N2CCN(CCO)CC2)n1` [dasatanib] + COC(=O)c1sccc1S(=O)(=O)Nc1ccc(Nc2ccccc2)cc1OC [GSK0660] (first compound 0.004 µM, partner dose 1 µM) showed a cell count of 92.2%.
The same measure for `C[C@]1(c2nc3c(C(N)=O)cccc3[nH]2)CCCN1` [Veliparib] + CCN(CC)CCCCNc1ncc2cc(-c3cc(OC)cc(OC)c3)c(NC(=O)NC(C)(C)C)nc2n1 [PD173074] (first compound 1.4 µM, partner dose 0.1 µM): 100%.
The same measure for `C=CCn1c(=O)c2cnc(Nc3ccc(N4CCN(C)CC4)cc3)nc2n1-c1cccc(C(C)(C)O)n1` + COC(=O)c1sccc1S(=O)(=O)Nc1ccc(Nc2ccccc2)cc1OC [GSK0660] (first compound 0.02 µM, partner dose 1 µM): 91.4%; for `NC(=O)Nc1cc(-c2cccc(F)c2)sc1C(=O)N[C@H]1CCCNC1` + O=C(Nc1ccccc1)c1cc([N+](=O)[O-])ccc1Cl [GW9662] (first compound 0.02 µM, partner dose 2 µM): 85.2%.
The same measure for `OCCn1cc(-c2cnc3nnn(Cc4ccc5ncccc5c4)c3n2)cn1` + Cn1cncc1[C@@](N)(c1ccc(Cl)cc1)c1ccc2c(c1)c(-c1cccc(Cl)c1)cc(=O)n2C [tipifarnib] (first compound 1 µM, partner dose 0.01 µM): 77.7%.
In the case of `CN(C)S(=O)(=O)c1ccc2c(c1)/C(=C/c1cc3c([nH]1)CCCC3)C(=O)N2` + O=C(Nc1ccccc1)c1cc([N+](=O)[O-])ccc1Cl [GW9662] (first compound 0.4 µM, partner dose 2 µM), the cell count is 104%.
Next, `CN(C)S(=O)(=O)c1ccc2c(c1)/C(=C/c1cc3c([nH]1)CCCC3)C(=O)N2` + CCc1ccc(CCOc2ccc(CC3SC(=O)NC3=O)cc2)nc1 [pioglitazone] (first compound 0.4 µM, partner dose 2 µM): 86.3%; `Cc1nc(Nc2ncc(C(=O)Nc3c(C)cccc3Cl)s2)cc(N2CCN(CCO)CC2)n1` [dasatanib] + Cc1cc([N+](=O)[O-])ccc1NS(=O)(=O)c1cc(Cl)ccc1Cl [FH535] (first compound 0.004 µM, partner dose 1 µM): 74.9%.
In turn, `OCCn1cc(-c2cnc3nnn(Cc4ccc5ncccc5c4)c3n2)cn1` + CN(C)S(=O)(=O)c1ccc2c(c1)/C(=C/c1cc3c([nH]1)CCCC3)C(=O)N2 [SU6656] (first compound 1 µM, partner dose 0.4 µM) had a cell count of 79.3%.
Next, `CN(C)S(=O)(=O)c1ccc2c(c1)/C(=C/c1cc3c([nH]1)CCCC3)C(=O)N2` + COc1ccc2c(c1)CCC1C2CCC2(C)C(NCCCCCCN3C(=O)C=CC3=O)CCC12 [U73122] (first compound 0.4 µM, partner dose 0.4 µM): 90.4%; `CO[C@@H]1[C@H](N(C)C(=O)c2ccccc2)C[C@H]2O[C@]1(C)n1c3ccccc3c3c4c(c5c6ccccc6n2c5c31)C(=O)NC4` [Midostaurin] + Oc1nc(-c2ccc(C(F)(F)F)cc2)nc2c1CSCC2 [XAV939] (first compound 0.08 µM, partner dose 2 µM): 98%.
As for `CO[C@@H]1[C@H](N(C)C(=O)c2ccccc2)C[C@H]2O[C@]1(C)n1c3ccccc3c3c4c(c5c6ccccc6n2c5c31)C(=O)NC4` [Midostaurin] + C[C@@H]1CCN(C(=O)CC#N)C[C@@H]1N(C)c1ncnc2[nH]ccc12 [CP690550] (first compound 0.08 µM, partner dose 1 µM), the cell count was 97.5%.
Next, `C[C@]1(c2nc3c(C(N)=O)cccc3[nH]2)CCCN1` [Veliparib] + CC(C)CCN1c2nc(Nc3cc(F)c(O)c(F)c3)ncc2N(C)C(=O)C1C [BID1870] (first compound 1.4 µM, partner dose 0.2 µM): 106%.
For the compound `CO[C@@H]1[C@H](N(C)C(=O)c2ccccc2)C[C@H]2O[C@]1(C)n1c3ccccc3c3c4c(c5c6ccccc6n2c5c31)C(=O)NC4` [Midostaurin] + CC(C)(C)c1cnc(CSc2cnc(NC(=O)C3CCNCC3)s2)o1 [SNS-032] (first compound 0.08 µM, partner dose 0.01 µM), the cell count amounted to 76.7%.
Consider `NC(=O)Nc1cc(-c2cccc(F)c2)sc1C(=O)N[C@H]1CCCNC1` + COc1ccc(-c2ccc3c(N4CCOCC4)nc(N4C[C@@H](C)O[C@@H](C)C4)nc3n2)cc1CO [KU0063794] (first compound 0.02 µM, partner dose 0.02 µM), for which the cell count amounted to 105%.
As to `C[C@]1(c2nc3c(C(N)=O)cccc3[nH]2)CCCN1` [Veliparib] + COc1cc2ncnc(Nc3ccc(Oc4ccccc4)cc3)c2cc1OC [SrcI1] (first compound 1.4 µM, partner dose 2 µM), the cell count came to 123%.
The same measure for `OCCn1cc(-c2cnc3nnn(Cc4ccc5ncccc5c4)c3n2)cn1` + COc1ccc2c(c1)CCC1C2CCC2(C)C(NCCCCCCN3C(=O)C=CC3=O)CCC12 [U73122] (first compound 1 µM, partner dose 0.4 µM): 96.3%; for `NCC(=O)Nc1ccc(-n2nc(C(F)(F)F)cc2-c2ccc3c(ccc4ccccc43)c2)cc1` + CN(NC(=O)CC(=O)NN(C)C(=S)c1ccccc1)C(=S)c1ccccc1 [STA4783] (first compound 1 µM, partner dose 0.006 µM): 70.5%; for `Cc1nc(Nc2ncc(C(=O)Nc3c(C)cccc3Cl)s2)cc(N2CCN(CCO)CC2)n1` [dasatanib] + Oc1nc(-c2ccc(C(F)(F)F)cc2)nc2c1CSCC2 [XAV939] (first compound 0.004 µM, partner dose 2 µM): 81%.
Next, `OCCn1cc(-c2cnc3nnn(Cc4ccc5ncccc5c4)c3n2)cn1` + O=C(O)C(=O)Nc1sc2c(c1C(=O)O)CCNC2 [TCS401] (first compound 1 µM, partner dose 1.66667 µM): 104%; `C[C@]1(c2nc3c(C(N)=O)cccc3[nH]2)CCCN1` [Veliparib] + COc1ccc2c(c1)CCC1C2CCC2(C)C(NCCCCCCN3C(=O)C=CC3=O)CCC12 [U73122] (first compound 1.4 µM, partner dose 0.4 µM): 96%.
`NCC(=O)Nc1ccc(-n2nc(C(F)(F)F)cc2-c2ccc3c(ccc4ccccc43)c2)cc1` + O=C(Nc1ccccc1)c1cc([N+](=O)[O-])ccc1Cl [GW9662] (first compound 1 µM, partner dose 2 µM) yielded a cell count of 103%.
The same measure for `OCCn1cc(-c2cnc3nnn(Cc4ccc5ncccc5c4)c3n2)cn1` + CN(NC(=O)CC(=O)NN(C)C(=S)c1ccccc1)C(=S)c1ccccc1 [STA4783] (first compound 1 µM, partner dose 0.006 µM): 92.2%.
Turning to `C=CCn1c(=O)c2cnc(Nc3ccc(N4CCN(C)CC4)cc3)nc2n1-c1cccc(C(C)(C)O)n1` + O=C1NC(=O)/C(=C/c2ccc(-c3ccc(F)cc3O)o2)S1 [AS252424] (first compound 0.02 µM, partner dose 1 µM), the cell count was 101%.
The same measure for `NC(=O)Nc1cc(-c2cccc(F)c2)sc1C(=O)N[C@H]1CCCNC1` + C[C@@H]1CCN(C(=O)CC#N)C[C@@H]1N(C)c1ncnc2[nH]ccc12 [CP690550] (first compound 0.02 µM, partner dose 1 µM): 130%.
